The list shows a part of the results.
Columns and labels:
Test in all cases: glycan array binding signal (z-score within array); higher = stronger binding
Details in all cases: glycan notation: IUPAC condensed, linker removed
[1] = biological target: GlcNAc(b1-2)[GlcNAc(b1-4)]Man(a1-3)[GlcNAc(b1-4)][GlcNAc(b1-2)[GlcNAc(b1-6)]Man(a1-6)]Man(b1-4)GlcNAc(b1-4)GlcNAc
Summary of the method: (§1)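 Glycan array data were curated from 3228 arrays in the Consortium for Functional Glycomics database and kept only where the protein sequence was available. Glycan names were converted to IUPAC-condensed notation, and columns mapping to the same glycan were averaged. The binding signal is a within-array Z-score, averaged across arrays of the same protein sequence at different concentrations or buffers and across linkers. Negative Z-scores can be read as non-binding.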

[2] = biological target: GlcNAc(b1-2)[GlcNAc(b1-4)]Man(a1-3)[GlcNAc(b1-4)][GlcNAc(b1-2)[GlcNAc(b1-6)]Man(a1-6)]Man(b1-4)GlcNAc(b1-4)[Fuc(a1-6)]GlcNAc
Summary of the method: as §1

[3] = biological target: GlcNAc(b1-2)[GlcNAc(b1-6)]Man(a1-6)[GlcNAc(b1-2)Man(a1-3)]Man(b1-4)GlcNAc(b1-4)GlcNAc
Summary of the method: as §1

[4] = biological target: GlcNAc(b1-2)[GlcNAc(b1-6)]Man(a1-6)[GlcNAc(b1-2)Man(a1-3)]Man(b1-4)GlcNAc(b1-4)[Fuc(a1-6)]GlcNAc
Summary of the method: as §1

[5] = biological target: GlcNAc(b1-2)[GlcNAc(b1-6)]Man(a1-6)[GlcNAc(b1-4)][GlcNAc(b1-2)Man(a1-3)]Man(b1-4)GlcNAc(b1-4)GlcNAc
Summary of the method: as §1

GlcNAc(b1-3)Fuc = biological target: GlcNAc(b1-3)Fuc
Summary of the method: as §1

GlcNAc(b1-3)Gal = biological target: GlcNAc(b1-3)Gal
Summary of the method: as §1

[6] = biological target: GlcNAc(b1-3)Gal(b1-3)GalNAc
Summary of the method: as §1

GlcNAc(b1-3)Gal(b1-4)Glc = biological target: GlcNAc(b1-3)Gal(b1-4)Glc
Summary of the method: as §1

[7] = biological target: GlcNAc(b1-3)Gal(b1-4)GlcNAc
Summary of the method: as §1

[8] = biological target: GlcNAc(b1-3)Gal(b1-4)GlcNAc(b1-2)Man(a1-3)[GlcNAc(b1-3)Gal(b1-4)GlcNAc(b1-2)Man(a1-6)]Man(b1-4)GlcNAc(b1-4)GlcNAc
Summary of the method: as §1

[9] = biological target: GlcNAc(b1-3)Gal(b1-4)GlcNAc(b1-2)Man(a1-3)[GlcNAc(b1-3)Gal(b1-4)GlcNAc(b1-2)Man(a1-6)]Man(b1-4)GlcNAc(b1-4)[Fuc(a1-6)]GlcNAc
Summary of the method: as §1

[10] = biological target: GlcNAc(b1-3)Gal(b1-4)GlcNAc(b1-2)[GlcNAc(b1-3)Gal(b1-4)GlcNAc(b1-6)]Man(a1-6)[GlcNAc(b1-3)Gal(b1-4)GlcNAc(b1-2)Man(a1-3)]Man(b1-4)GlcNAc(b1-4)GlcNAc
Summary of the method: as §1

[11] = biological target: GlcNAc(b1-3)Gal(b1-4)GlcNAc(b1-3)Gal(b1-4)GlcNAc
Summary of the method: as §1

[12] = biological target: GlcNAc(b1-3)Gal(b1-4)GlcNAc(b1-3)Gal(b1-4)GlcNAc(b1-2)Man(a1-3)[GlcNAc(b1-3)Gal(b1-4)GlcNAc(b1-3)Gal(b1-4)GlcNAc(b1-2)Man(a1-6)]Man(b1-4)GlcNAc(b1-4)GlcNAc
Summary of the method: as §1

[13] = biological target: GlcNAc(b1-3)Gal(b1-4)GlcNAc(b1-3)Gal(b1-4)GlcNAc(b1-2)Man(a1-3)[GlcNAc(b1-3)Gal(b1-4)GlcNAc(b1-3)Gal(b1-4)GlcNAc(b1-2)Man(a1-6)]Man(b1-4)GlcNAc(b1-4)[Fuc(a1-6)]GlcNAc
Summary of the method: as §1

[14] = biological target: GlcNAc(b1-3)Gal(b1-4)GlcNAc(b1-3)Gal(b1-4)GlcNAc(b1-2)[GlcNAc(b1-3)Gal(b1-4)GlcNAc(b1-3)Gal(b1-4)GlcNAc(b1-6)]Man(a1-6)[GlcNAc(b1-3)Gal(b1-4)GlcNAc(b1-3)Gal(b1-4)GlcNAc(b1-2)Man(a1-3)]Man(b1-4)GlcNAc(b1-4)[Fuc(a1-6)]GlcNAc
Summary of the method: as §1

[15] = biological target: GlcNAc(b1-3)Gal(b1-4)GlcNAc(b1-3)Gal(b1-4)GlcNAc(b1-3)Gal(b1-4)GlcNAc(b1-2)Man(a1-3)[GlcNAc(b1-3)Gal(b1-4)GlcNAc(b1-3)Gal(b1-4)GlcNAc(b1-3)Gal(b1-4)GlcNAc(b1-2)Man(a1-6)]Man(b1-4)GlcNAc(b1-4)GlcNAc
Summary of the method: as §1

[16] = biological target: GlcNAc(b1-3)Gal(b1-4)GlcNAc(b1-3)Gal(b1-4)GlcNAc(b1-3)Gal(b1-4)GlcNAc(b1-2)Man(a1-3)[GlcNAc(b1-3)Gal(b1-4)GlcNAc(b1-3)Gal(b1-4)GlcNAc(b1-3)Gal(b1-4)GlcNAc(b1-2)Man(a1-6)]Man(b1-4)GlcNAc(b1-4)[Fuc(a1-6)]GlcNAc
Summary of the method: as §1

[17] = biological target: GlcNAc(b1-3)Gal(b1-4)GlcNAc(b1-3)Gal(b1-4)GlcNAc(b1-3)Gal(b1-4)GlcNAc(b1-2)[GlcNAc(b1-3)Gal(b1-4)GlcNAc(b1-3)Gal(b1-4)GlcNAc(b1-3)Gal(b1-4)GlcNAc(b1-6)]Man(a1-6)[GlcNAc(b1-3)Gal(b1-4)GlcNAc(b1-3)Gal(b1-4)GlcNAc(b1-3)Gal(b1-4)GlcNAc(b1-2)Man(a1-3)]Man(b1-4)GlcNAc(b1-4)[Fuc(a1-6)]GlcNAc
Summary of the method: as §1

[18] = biological target: GlcNAc(b1-3)Gal(b1-4)GlcNAc(b1-3)Gal(b1-4)GlcNAc(b1-3)Gal(b1-4)GlcNAc(b1-3)Gal(b1-4)GlcNAc(b1-2)Man(a1-3)[GlcNAc(b1-3)Gal(b1-4)GlcNAc(b1-3)Gal(b1-4)GlcNAc(b1-3)Gal(b1-4)GlcNAc(b1-3)Gal(b1-4)GlcNAc(b1-2)Man(a1-6)]Man(b1-4)GlcNAc(b1-4)GlcNAc
Summary of the method: as §1

[19] = biological target: GlcNAc(b1-3)Gal(b1-4)GlcNAc(b1-3)Gal(b1-4)GlcNAc(b1-3)Gal(b1-4)GlcNAc(b1-3)Gal(b1-4)GlcNAc(b1-2)Man(a1-3)[GlcNAc(b1-3)Gal(b1-4)GlcNAc(b1-3)Gal(b1-4)GlcNAc(b1-3)Gal(b1-4)GlcNAc(b1-3)Gal(b1-4)GlcNAc(b1-2)Man(a1-6)]Man(b1-4)GlcNAc(b1-4)[Fuc(a1-6)]GlcNAc
Summary of the method: as §1

[20] = biological target: GlcNAc(b1-3)Gal(b1-4)GlcNAc(b1-3)Gal(b1-4)GlcNAc(b1-3)Gal(b1-4)GlcNAc(b1-3)Gal(b1-4)GlcNAc(b1-2)[GlcNAc(b1-3)Gal(b1-4)GlcNAc(b1-3)Gal(b1-4)GlcNAc(b1-3)Gal(b1-4)GlcNAc(b1-3)Gal(b1-4)GlcNAc(b1-6)]Man(a1-6)[GlcNAc(b1-3)Gal(b1-4)GlcNAc(b1-3)Gal(b1-4)GlcNAc(b1-3)Gal(b1-4)GlcNAc(b1-3)Gal(b1-4)GlcNAc(b1-2)Man(a1-3)]Man(b1-4)GlcNAc(b1-4)[Fuc(a1-6)]GlcNAc
Summary of the method: as §1

[21] = biological target: GlcNAc(b1-3)Gal(b1-4)GlcNAc(b1-3)Gal(b1-4)GlcNAc(b1-3)GalNAc
Summary of the method: as §1

[22] = biological target: GlcNAc(b1-3)Gal(b1-4)GlcNAc(b1-3)GalNAc
Summary of the method: as §1

[23] = biological target: GlcNAc(b1-3)Gal(b1-4)GlcNAc(b1-3)[GlcNAc(b1-3)Gal(b1-4)GlcNAc(b1-3)]GalNAc
Summary of the method: as §1

[24] = biological target: GlcNAc(b1-3)Gal(b1-4)GlcNAc(b1-6)[Gal(b1-3)]GalNAc
Summary of the method: as §1

[25] = biological target: GlcNAc(b1-3)Gal(b1-4)GlcNAc(b1-6)[GlcNAc(b1-3)Gal(b1-3)]GalNAc
Summary of the method: as §1

[26] = biological target: GlcNAc(b1-3)Gal(b1-4)GlcNAc(b1-6)[GlcNAc(b1-3)]Gal(b1-4)GlcNAc
Summary of the method: as §1

GlcNAc(b1-3)GalNAc = biological target: GlcNAc(b1-3)GalNAc
Summary of the method: as §1

GlcNAc(b1-3)Man = biological target: GlcNAc(b1-3)Man
Summary of the method: as §1

[27] = biological target: GlcNAc(b1-3)[GlcNAc(b1-4)][GlcNAc(b1-6)]GlcNAc
Summary of the method: as §1

[28] = biological target: GlcNAc(b1-3)[GlcNAc(b1-6)]Gal(b1-4)GlcNAc
Summary of the method: as §1

[29] = biological target: GlcNAc(b1-3)[GlcNAc(b1-6)]GalNAc
Summary of the method: as §1

[30] = biological target: GlcNAc(b1-4)Gal(b1-4)GlcNAc
Summary of the method: as §1

GlcNAc(b1-4)GlcNAc = biological target: GlcNAc(b1-4)GlcNAc
Summary of the method: as §1

[31] = biological target: GlcNAc(b1-4)GlcNAc(b1-4)GlcNAc
Summary of the method: as §1

[32] = biological target: GlcNAc(b1-4)GlcNAc(b1-4)GlcNAc(b1-4)GlcNAc(b1-4)GlcNAc
Summary of the method: as §1

B1: PX14343H-pdi-506-26-506 (Parabacteroides distasonis) (protein)
chain: QPTGTMTTDSKLTSKESALALTNSAYLKNTVFNKMTPGWGCNTILLLEYMTGKATSENSQSNYKDFQDLLVSDRSLYIEDWWQDCYAGIANCNLALQKLGEFENLDASLVNGYMAEVKFMRALYYFYLVRIFGDVPKITTVQSELGELQVSRAPVKEIYDEIIIPDLLEAEQSDLAFSDHTGRVSMGAVKALLADVYLTYAGYPLQGGKSYYAESAKRSLEVIKSNEYTLFTDYESLRLPSQNNKGEFIYQVQFSLNKRHNESVRIFLPSRSGISAYDLEYGSLIPTKEFVESFEKGDKRTEEKQYFFTNYKGHPSKFSPGAAELEFMDLNGYYIYKFFDQVAVDNTAKSDLNWSVYRYTDVLLMYAEAQVNADGTPNQQSIDIVNQIRGRAGLAPFKQTNASAFLEEVWDQRYFDLCYENKMWFDMLRTRKIRDDKSGEYVDFIGYKTNWGKVYTETQLLFPIPLSERQANPNLTQNQGY
- glycan array binding signal (z-score) [1]: -0.527
- glycan array binding signal (z-score) [2]: -0.446
- glycan array binding signal (z-score) [3]: -0.19
- glycan array binding signal (z-score) [4]: -0.354
- glycan array binding signal (z-score) [5]: -0.488
- glycan array binding signal (z-score) (GlcNAc(b1-3)Fuc): -0.234
- glycan array binding signal (z-score) (GlcNAc(b1-3)Gal): -0.446
- glycan array binding signal (z-score) [6]: -0.363
- glycan array binding signal (z-score) (GlcNAc(b1-3)Gal(b1-4)Glc): -0.525
- glycan array binding signal (z-score) [7]: -0.467
- glycan array binding signal (z-score) [8]: -0.309
- glycan array binding signal (z-score) [9]: -0.069
- glycan array binding signal (z-score) [10]: 0.616
- glycan array binding signal (z-score) [11]: -0.418
- glycan array binding signal (z-score) [12]: -0.068
- glycan array binding signal (z-score) [13]: 0.283
- glycan array binding signal (z-score) [14]: -0.099
- glycan array binding signal (z-score) [15]: -0.249
- glycan array binding signal (z-score) [16]: 0.224
- glycan array binding signal (z-score) [17]: 0.039
- glycan array binding signal (z-score) [18]: -0.084
- glycan array binding signal (z-score) [19]: -0.36
- glycan array binding signal (z-score) [20]: 2.61
- glycan array binding signal (z-score) [21]: -0.479
- glycan array binding signal (z-score) [22]: -0.331
- glycan array binding signal (z-score) [23]: -0.202
- glycan array binding signal (z-score) [24]: -0.197
- glycan array binding signal (z-score) [25]: -0.354
- glycan array binding signal (z-score) [26]: -0.42
- glycan array binding signal (z-score) (GlcNAc(b1-3)GalNAc): -0.326
- glycan array binding signal (z-score) (GlcNAc(b1-3)Man): -0.389
- glycan array binding signal (z-score) [27]: -0.185
- glycan array binding signal (z-score) [28]: -0.252
- glycan array binding signal (z-score) [29]: -0.311
- glycan array binding signal (z-score) [30]: -0.461
- glycan array binding signal (z-score) (GlcNAc(b1-4)GlcNAc): -0.378
- glycan array binding signal (z-score) [31]: -0.411
- glycan array binding signal (z-score) [32]: -0.431

— the supplement of paper PMC8728848
